Test results published in paper PMC4336329 (PLoS ONE, 2015).
About 2,200 (0.71%) of roughly 310,000 compounds showed an effect of 50% or more. Effects have a minus sign here. This is one part of the list.

The compounds below were run against human ether-à-go-go-related gene (hERG) potassium channel (human, UniProt Q12809) (assay: primary screen, population patch clamp on CHO cells stably expressing hERG).
Chain of human ether-à-go-go-related gene (hERG) potassium channel (Q12809 whole entry, looked up): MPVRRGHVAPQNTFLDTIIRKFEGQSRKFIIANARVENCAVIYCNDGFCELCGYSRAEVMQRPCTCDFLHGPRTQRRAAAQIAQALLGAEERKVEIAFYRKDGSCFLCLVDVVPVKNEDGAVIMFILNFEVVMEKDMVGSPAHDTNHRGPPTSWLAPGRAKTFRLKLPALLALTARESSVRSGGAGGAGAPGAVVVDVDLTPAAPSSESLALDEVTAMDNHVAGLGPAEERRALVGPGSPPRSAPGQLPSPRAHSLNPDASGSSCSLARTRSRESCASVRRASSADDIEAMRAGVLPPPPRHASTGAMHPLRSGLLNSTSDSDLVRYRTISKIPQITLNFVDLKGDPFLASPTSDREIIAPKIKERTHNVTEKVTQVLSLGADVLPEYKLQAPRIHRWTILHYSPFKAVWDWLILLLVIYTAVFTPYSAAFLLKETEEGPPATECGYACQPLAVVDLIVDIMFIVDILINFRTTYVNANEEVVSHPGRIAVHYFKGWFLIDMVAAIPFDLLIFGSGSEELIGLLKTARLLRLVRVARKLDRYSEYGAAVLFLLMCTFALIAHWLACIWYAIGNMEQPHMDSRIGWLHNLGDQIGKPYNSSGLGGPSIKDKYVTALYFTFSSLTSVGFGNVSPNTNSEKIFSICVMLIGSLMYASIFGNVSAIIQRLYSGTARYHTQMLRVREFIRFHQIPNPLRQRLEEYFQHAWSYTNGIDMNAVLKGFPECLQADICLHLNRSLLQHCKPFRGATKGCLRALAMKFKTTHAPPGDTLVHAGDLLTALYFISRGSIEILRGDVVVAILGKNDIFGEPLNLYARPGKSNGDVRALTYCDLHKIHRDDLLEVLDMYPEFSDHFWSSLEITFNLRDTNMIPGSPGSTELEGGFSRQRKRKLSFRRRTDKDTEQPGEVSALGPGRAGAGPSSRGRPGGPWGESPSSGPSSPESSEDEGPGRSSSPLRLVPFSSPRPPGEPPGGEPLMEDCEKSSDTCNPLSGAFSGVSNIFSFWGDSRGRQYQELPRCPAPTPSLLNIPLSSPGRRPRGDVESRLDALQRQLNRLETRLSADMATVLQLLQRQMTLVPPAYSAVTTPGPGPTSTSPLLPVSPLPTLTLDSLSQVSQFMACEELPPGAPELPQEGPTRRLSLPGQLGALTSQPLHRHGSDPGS

| SMILES | hERG current change (%, negative = inhibition) at 1uM [%] |
| --- | --- |
| CCc1ccccc1NC(=O)CCC(=O)N1CCSc2ccccc21 | 7.25 |
| O=C(Cn1c(=O)n(Cc2ccco2)c(=O)c2cc(Cl)ccc21)NCC1CCCO1 (stereo not drawn) | -2.91 |
| NC(N)=NCCC[C@H](NC(=O)OCc1ccccc1)C(=O)O | 18 |
| Cc1cnc(C(=O)OCC(=O)N(C(C)C)C(C)C)cn1 | 17.3 |
| CC(C)c1ccc(/C=C2\SC(=O)N(CC(=O)NC3C=CS(=O)(=O)C3)C2=O)cc1 (stereo not drawn) | 9.92 |
| O=C(NC1(C(F)(F)F)C(=O)Nc2c1c(=O)[nH]c(=O)n2-c1ccc(F)cc1)c1cccnc1 (stereo not drawn) | 19.6 |
| CCSc1nnc(NC(=O)CSc2ncccn2)s1 | 6.95 |
| O=C(Nc1cc(C(F)(F)F)ccc1N1CCCC1)c1ccc2c(c1)OCO2 | 11 |
| CCOc1ccc(CN2CCC(=O)NC2=O)cc1 | 4.34 |
| Cc1ccc(-n2ccc(=O)c(C(=O)Nc3ccc(S(=O)(=O)Nc4nccs4)cc3)n2)cc1 | 16.3 |
| Cc1ccc(Cl)cc1N1CCN(C(=O)CCC(=O)O)CC1 | 8.57 |
| Brc1ccccc1-n1nnc(-c2cccnc2)n1 | 0.231 |
| CCOC(=O)Cc1csc(NC(=O)CSc2nc3sc(C(=O)O)c(C)c3c(=O)[nH]2)n1 | -7.54 |
| Cc1ccc(S(=O)(=O)C2(C(=O)NCc3ccc4c(c3)OCO4)CC2)cc1 | 6.21 |
| COc1cc([N+](=O)[O-])ccc1NC(=O)NNC(=O)c1sccc1C | -1.62 |
| CCCCN(C)CCC(=O)Nc1ccc(C)cc1.Cl | 7.37 |
| O=C(CSc1nc2ncc(Cl)cc2[nH]1)NC1CCS(=O)(=O)C1 (stereo not drawn) | 24.4 |
| Cc1ccc(S(=O)(=O)N2CCCCC2)cc1C(=O)Nc1ccc(N2CCOCC2)cc1 | 2.48 |
| CC1CCN(S(=O)(=O)c2ccc(-c3nnc(SCc4cccnc4)o3)cc2)CC1 | 15.6 |
| COc1ccc(-c2ccc(CNCc3ccccn3)o2)cc1Cl.Cl | 6.23 |
| Cc1cc(C)c(C#N)c(SCCN2CCOCC2)n1 | 18 |
| O=C(COc1ccc([N+](=O)[O-])cc1)Nc1ccc(S(=O)(=O)N2CCOCC2)cc1 | -55.1 |
| CCOC(=O)N1CCN(C(=O)COc2cccc3c2CCN(Cc2cccc(C)c2)C3=O)CC1 | -19.2 |
| O=S(=O)(Nc1ccc(-c2csc(-c3ccccc3)n2)cc1)c1ccc(F)cc1 | 13.1 |
